Measured values as given in PMC10991417.
Where a chain is given by its changes, count along the chain named. Names may count otherwise. Results are given in words; binding and its absence hold for the method and conditions named. Some results given as binding are weak or reduced against the parent protein; the word gives no strength. For part of these data: Where a sequence is shown, tags or fusion partners need not be part of it. Each block holds one molecule with its values, some of them ahead of it.

Amino acid sequences for entries named in this document (tags omitted). A change or cut given only in a name is not applied to a line headed by its entry.
UniProt A8DY81: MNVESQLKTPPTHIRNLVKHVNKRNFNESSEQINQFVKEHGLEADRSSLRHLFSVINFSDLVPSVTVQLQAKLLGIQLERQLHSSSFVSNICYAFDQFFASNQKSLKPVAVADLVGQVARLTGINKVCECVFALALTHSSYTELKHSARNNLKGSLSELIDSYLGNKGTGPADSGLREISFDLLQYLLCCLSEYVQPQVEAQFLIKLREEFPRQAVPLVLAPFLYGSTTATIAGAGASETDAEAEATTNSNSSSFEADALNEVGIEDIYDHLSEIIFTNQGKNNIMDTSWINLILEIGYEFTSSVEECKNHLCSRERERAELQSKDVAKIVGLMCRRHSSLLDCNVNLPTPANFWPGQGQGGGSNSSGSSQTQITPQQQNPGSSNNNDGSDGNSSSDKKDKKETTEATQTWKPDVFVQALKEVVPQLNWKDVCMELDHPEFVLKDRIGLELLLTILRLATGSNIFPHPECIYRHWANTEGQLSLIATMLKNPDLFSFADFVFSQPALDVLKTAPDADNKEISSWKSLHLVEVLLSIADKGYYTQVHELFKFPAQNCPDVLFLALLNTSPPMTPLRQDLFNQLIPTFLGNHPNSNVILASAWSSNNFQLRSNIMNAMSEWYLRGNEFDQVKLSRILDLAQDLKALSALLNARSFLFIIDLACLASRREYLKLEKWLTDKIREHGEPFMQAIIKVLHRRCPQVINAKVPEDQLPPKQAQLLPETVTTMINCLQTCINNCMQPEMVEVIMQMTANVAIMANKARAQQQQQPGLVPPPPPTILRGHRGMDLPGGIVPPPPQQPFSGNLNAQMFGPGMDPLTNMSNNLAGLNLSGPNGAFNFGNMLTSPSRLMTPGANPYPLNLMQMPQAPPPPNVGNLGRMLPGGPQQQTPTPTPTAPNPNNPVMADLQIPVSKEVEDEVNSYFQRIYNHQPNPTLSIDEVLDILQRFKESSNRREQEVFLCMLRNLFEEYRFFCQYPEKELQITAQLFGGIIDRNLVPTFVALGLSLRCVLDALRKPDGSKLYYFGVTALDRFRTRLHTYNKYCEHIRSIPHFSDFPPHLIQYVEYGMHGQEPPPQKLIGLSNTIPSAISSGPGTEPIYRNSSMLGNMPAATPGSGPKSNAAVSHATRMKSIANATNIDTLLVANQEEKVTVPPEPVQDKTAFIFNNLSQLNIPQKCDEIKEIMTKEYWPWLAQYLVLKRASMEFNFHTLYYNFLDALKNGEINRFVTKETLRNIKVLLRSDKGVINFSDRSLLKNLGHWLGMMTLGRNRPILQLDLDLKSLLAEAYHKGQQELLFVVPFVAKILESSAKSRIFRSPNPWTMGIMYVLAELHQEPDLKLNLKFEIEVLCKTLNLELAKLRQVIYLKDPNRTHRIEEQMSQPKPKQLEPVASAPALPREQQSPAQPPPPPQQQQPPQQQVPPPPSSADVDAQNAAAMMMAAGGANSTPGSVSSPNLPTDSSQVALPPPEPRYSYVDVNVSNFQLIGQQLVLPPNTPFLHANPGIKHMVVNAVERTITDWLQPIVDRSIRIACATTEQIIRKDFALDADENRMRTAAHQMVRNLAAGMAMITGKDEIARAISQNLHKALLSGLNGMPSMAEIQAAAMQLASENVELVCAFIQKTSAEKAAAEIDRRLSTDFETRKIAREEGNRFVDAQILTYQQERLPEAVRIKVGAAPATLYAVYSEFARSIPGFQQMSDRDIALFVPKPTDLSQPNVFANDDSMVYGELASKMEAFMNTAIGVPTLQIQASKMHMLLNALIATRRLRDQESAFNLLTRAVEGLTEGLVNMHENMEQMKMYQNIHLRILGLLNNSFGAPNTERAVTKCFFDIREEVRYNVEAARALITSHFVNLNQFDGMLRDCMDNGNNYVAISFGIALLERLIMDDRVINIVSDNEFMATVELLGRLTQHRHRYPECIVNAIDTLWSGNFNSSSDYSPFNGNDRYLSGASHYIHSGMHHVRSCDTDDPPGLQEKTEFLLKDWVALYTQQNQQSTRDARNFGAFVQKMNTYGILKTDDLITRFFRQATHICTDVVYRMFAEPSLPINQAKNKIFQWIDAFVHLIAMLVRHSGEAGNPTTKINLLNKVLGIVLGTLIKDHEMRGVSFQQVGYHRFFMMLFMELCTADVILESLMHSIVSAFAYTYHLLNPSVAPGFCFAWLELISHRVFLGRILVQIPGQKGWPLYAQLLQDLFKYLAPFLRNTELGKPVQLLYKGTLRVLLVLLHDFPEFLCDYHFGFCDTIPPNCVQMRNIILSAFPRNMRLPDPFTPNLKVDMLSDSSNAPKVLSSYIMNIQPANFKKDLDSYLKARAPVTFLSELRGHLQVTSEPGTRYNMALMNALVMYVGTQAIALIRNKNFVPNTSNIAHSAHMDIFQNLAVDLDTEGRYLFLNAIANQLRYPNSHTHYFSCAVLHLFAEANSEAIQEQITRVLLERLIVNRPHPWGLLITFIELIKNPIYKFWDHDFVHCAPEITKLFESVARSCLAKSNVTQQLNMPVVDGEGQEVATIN
UniProt Q7K126: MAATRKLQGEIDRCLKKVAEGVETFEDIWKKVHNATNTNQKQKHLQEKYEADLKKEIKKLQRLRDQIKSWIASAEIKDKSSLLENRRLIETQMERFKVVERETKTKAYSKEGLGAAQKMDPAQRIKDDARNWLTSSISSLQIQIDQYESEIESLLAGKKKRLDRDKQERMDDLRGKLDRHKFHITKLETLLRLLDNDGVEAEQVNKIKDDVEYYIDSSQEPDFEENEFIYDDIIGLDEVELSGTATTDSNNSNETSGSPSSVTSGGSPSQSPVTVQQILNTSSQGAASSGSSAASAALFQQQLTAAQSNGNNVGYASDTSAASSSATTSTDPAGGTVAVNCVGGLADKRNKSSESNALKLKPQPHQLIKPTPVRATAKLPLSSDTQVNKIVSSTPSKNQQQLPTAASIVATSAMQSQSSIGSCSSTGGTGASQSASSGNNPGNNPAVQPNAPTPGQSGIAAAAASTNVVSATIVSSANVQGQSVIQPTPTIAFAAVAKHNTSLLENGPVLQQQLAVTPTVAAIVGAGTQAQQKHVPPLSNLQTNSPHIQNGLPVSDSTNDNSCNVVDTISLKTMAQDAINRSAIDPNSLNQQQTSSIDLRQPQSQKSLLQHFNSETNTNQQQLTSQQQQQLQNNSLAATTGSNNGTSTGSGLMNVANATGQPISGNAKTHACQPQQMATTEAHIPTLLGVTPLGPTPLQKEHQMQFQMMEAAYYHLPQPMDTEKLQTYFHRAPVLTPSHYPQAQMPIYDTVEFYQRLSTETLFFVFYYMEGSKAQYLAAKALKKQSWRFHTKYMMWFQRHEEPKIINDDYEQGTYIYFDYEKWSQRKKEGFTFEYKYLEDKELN
UniProt Q7JVP2: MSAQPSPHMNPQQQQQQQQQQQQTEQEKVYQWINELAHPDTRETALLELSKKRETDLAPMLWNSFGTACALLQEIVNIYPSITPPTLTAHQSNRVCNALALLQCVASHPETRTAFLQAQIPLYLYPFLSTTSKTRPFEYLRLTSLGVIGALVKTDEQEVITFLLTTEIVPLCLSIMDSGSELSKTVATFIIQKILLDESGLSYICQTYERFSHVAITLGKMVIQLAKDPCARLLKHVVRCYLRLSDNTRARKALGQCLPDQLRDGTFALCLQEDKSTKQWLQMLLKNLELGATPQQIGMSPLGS

Columns and labels:
[1] = target: NOT1 (Drosophila CCR4-NOT complex subunit) (Drosophila) (UniProt A8DY81); experiment: ReLo relocalization assay (live-cell confocal fluorescence microscopy); pairwise; one partner anchored to the plasma membrane by the PH domain of rat PLCδ1 and fused to mCherry, the other fused to EGFP/mEGFP; S2R+ cells cotransfected with two plasmids, imaged after 48 h at 25 °C
[2] = target: NOT3 (Drosophila CCR4-NOT complex subunit) (Drosophila) (UniProt Q7K126); experiment: ReLo relocalization assay (live-cell confocal fluorescence microscopy); pairwise; membrane anchor (PH or OST4) and which partner was anchored are not given; S2R+ cells cotransfected with two plasmids, imaged after 48 h at 25 °C
[3] = target: CAF40 V186E (CAF40 MUT) (Drosophila) (UniProt Q7JVP2); experiment: as above
[4] = target: NOT1 (Drosophila CCR4-NOT complex subunit) (Drosophila) (UniProt A8DY81); experiment: as above
[5] = target: T1, NOT2 (Drosophila CCR4-NOT complex subunit) (Drosophila) (UniProt Q94547); experiment: as above
T1 sequence: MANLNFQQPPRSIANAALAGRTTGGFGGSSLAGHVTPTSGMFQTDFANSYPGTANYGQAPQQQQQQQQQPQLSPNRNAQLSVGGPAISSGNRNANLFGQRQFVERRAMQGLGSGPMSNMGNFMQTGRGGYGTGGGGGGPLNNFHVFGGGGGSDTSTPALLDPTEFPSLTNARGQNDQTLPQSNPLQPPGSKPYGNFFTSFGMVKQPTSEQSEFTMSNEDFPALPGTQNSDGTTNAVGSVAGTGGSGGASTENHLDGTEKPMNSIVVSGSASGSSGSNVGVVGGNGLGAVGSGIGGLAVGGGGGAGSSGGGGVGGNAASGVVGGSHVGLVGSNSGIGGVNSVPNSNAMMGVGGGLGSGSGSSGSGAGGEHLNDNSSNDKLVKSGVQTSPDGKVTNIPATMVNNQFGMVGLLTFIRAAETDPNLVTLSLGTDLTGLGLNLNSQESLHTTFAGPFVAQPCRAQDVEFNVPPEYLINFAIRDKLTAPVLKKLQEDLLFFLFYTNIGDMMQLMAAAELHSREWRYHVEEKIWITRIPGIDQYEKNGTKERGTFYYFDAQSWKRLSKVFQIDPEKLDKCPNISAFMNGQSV

[6] = target: CAF40 (Drosophila CCR4-NOT complex subunit) (Drosophila) (UniProt Q7JVP2); experiment: as above
[7] = target: NOT3, split-ubiquitin membrane yeast two-hybrid (MYTH) fusion (Drosophila) (UniProt Q7K126); experiment: two-hybrid; split-ubiquitin-based membrane yeast two-hybrid (MYTH); pPR3-N and pDHB1 vectors cotransformed into NMY51 yeast; spotting on SDC lacking leucine, tryptophan, adenine and histidine, six days at 30 °C

Molecule: NOT3 (Drosophila CCR4-NOT complex subunit) (from UniProt Q7K126 1-844)
binding [1]: binds

Molecule: CAF40 (Drosophila CCR4-NOT complex subunit) (from UniProt Q7JVP2 1-304)
binding [1]: binds

B1: Nanos (Drosophila) (protein, UniProt P25724 1-401)
chain: MFRSNLEGSGAAAVGVANPPSLAQSGKIFQLQDNFSAFHARGGLNILGLQDMYLDTSGANSSATLSPPITPVTPDPSTSAQSTHFPFLADSAATANSLLMQRQYHYHLLLQQQQQLAMAQHQLALAASAAAASASHQQTDEIARSLKIFAQVTTGAAENAAGSMQDVMQEFATNGYASDDLGRMSYGSAPPQVQMPPQQQHQQQQGLHLPLGRNPAQLQTNGGNLMPIPLATHWLNNYREHLNNVWRNMSYIPAAPNTMGLQAQTAATVSTNLGVGMGLGLPVQGEQLRGASNSSNNNNNNNKVYKRYNSKAKEISRHCVFCENNNEPEAVINSHSVRDNFNRVLCPKLRTYVCPICGASGDSAHTIKYCPKKPIITMEDAIKAESFRLAKSSYYKQQMKV
binding [2]: no binding
binding [3]: no binding
binding [4]: binds
binding [5]: no binding
binding [6]: binds

B4: Bag-of-marbles (Bam) (protein, UniProt P22745 1-442)
chain: MLNARDVCPEGNDDQQLDHNFKQMEEHLALMVEGNENEDPRKATCEYEDTNEDGATCTSGVLSEIQENFGRLRLCDVTAPLLEFHGLDCLQQIQKRSRHFAFDGSPAKKSRSGGVLVTGPKQKQLQKENVWNRKSKGSASADNIEKLPITIEKLHMIGLHGDCLEHNAVLRLMNLFRSLHDHLTADLGFSRQNSMPSDYLFDMPVKSTMPKSLNVRYQLQVLCTKVERFLVQQRRTLEANRHFDFEKYDECDKLLKGFASYLDNFKLLLKPKMRNRNGNSGSNADKFHTQRMERLLIGLRDWIKAAHLSVHVFNWEMDLEHRYSGAMTESHKSLNERAILLSGAELRAAEARGISAEDLFIAQRYKLGGPIYCVLEQHEFLSALIANPETYFPPSVVAICGPQKLGAVSMEQPSASEEEFEETEEVPSSPPRHTGRVPRFRS
binding [2]: no binding
binding [3]: no binding
binding [4]: no binding
binding [5]: no binding
binding [6]: binds

Further lines, results first:

binding [7]: binds
B2: NOT2, split-ubiquitin membrane yeast two-hybrid (MYTH) fusion (protein, UniProt Q94547 1-585)
chain: T1 sequence

binding [6]: no binding
B3: Nanos Δ140–160 (protein, UniProt P25724)
chain: MFRSNLEGSGAAAVGVANPPSLAQSGKIFQLQDNFSAFHARGGLNILGLQDMYLDTSGANSSATLSPPITPVTPDPSTSAQSTHFPFLADSAATANSLLMQRQYHYHLLLQQQQQLAMAQHQLALAASAAAASASHQQTAGSMQDVMQEFATNGYASDDLGRMSYGSAPPQVQMPPQQQHQQQQGLHLPLGRNPAQLQTNGGNLMPIPLATHWLNNYREHLNNVWRNMSYIPAAPNTMGLQAQTAATVSTNLGVGMGLGLPVQGEQLRGASNSSNNNNNNNKVYKRYNSKAKEISRHCVFCENNNEPEAVINSHSVRDNFNRVLCPKLRTYVCPICGASGDSAHTIKYCPKKPIITMEDAIKAESFRLAKSSYYKQQMKV

binding [6]: no binding
B5: Bam M24E (Bam MUT) (protein, UniProt P22745 1-442)
chain: B4 chain with M24E
